# Data as given in the GPR68 mutational scans of Howard et al. (2025).
# B1: GPR68, Q15743 (parent)
# chain: MGNITADNSSMSCTIDHTIHQTLAPVVYVTVLVVGFPANCLSLYFGYLQIKARNELGVYLCNLTVADLFYICSLPFWLQYVLQHDNWSHGDLSCQVCGILLYENIYISVGFLCCISVDRYLAVAHPFRFHQFRTLKAAVGVSVVIWAKELLTSIYFLMHEEVIEDENQHRVCFEHYPIQAWQRAINYYRFLVGFLFPICLLLASYQGILRAVRRSHGTQKSRKDQIQRLVLSTVVIFLACFLPYHVLLLVRSVWEASCDFAKGVFNAYHFSLLLTSFNCVADPVLYCFVSETTHRDLARLRGACLAFLTCSRTGRAREAYPLGAPEASGKSGAQGEEPELLTKLHPAFQTPNSPGSGGFPTGRLA
# Tests used:
# [1] = variants of: B1; assay: cAMP reporter score (Enrich2 score, wild type = 0); higher = more signal; HEK293T, FACS bins
# [2] = variants of: B1; assay: surface expression score (Enrich2 score, wild type = 0); higher = more signal; HEK293T, FACS bins
Variant,cAMP reporter score ([1]; pH 5.5),cAMP reporter score ([1]; pH 6),"cAMP reporter score ([1]; pH 6, modulator: ogerin)","cAMP reporter score ([1]; pH 6.5, modulator: ogerin)",surface expression score [2]
V264E,-1.48,-1.86,-0.728,-1.2,-1.23
V264S,0.048,-1.04,0.393,-0.113,-0.2
V264Y,0.456,0.446,0.218,-0.266,-0.008
V264M,1.68,3.85,2.1,3.25,1.61
V264R,-1.39,-1.56,-2.32,-1.61,-2.95
V264F,-0.215,-0.738,-1.03,-0.906,0.17
V264A,0.322,-0.853,-0.297,-2.06,0.051
V264Q,-0.627,0.115,-0.022,-0.797,-1.66
V264T,0.655,-0.437,0.231,-0.492,0.501
V264K,-0.407,-1.5,-1.63,-1.1,-1.9
V264D,-1.38,-0.972,-1.61,-1.18,-2.5
V264H,-0.936,-1.57,-0.583,-1.51,-1.89
V264C,-0.366,-0.327,-0.262,0.329,-0.782
V264L,0.121,-0.511,-0.038,-0.912,0.498
V264W,-0.009,-0.59,-0.321,-0.943,-0.042
F277_N278insGSG,-1.71,-0.834,-1.81,-1.26,-2.24
N266C,-0.801,,-1.23,-0.996,-1.37
N266G,-0.602,-0.003,-0.355,-1.52,1.22
N266A,-0.311,-1.13,-1.08,-1.6,0.437
N266L,-0.364,0.126,-0.56,-0.683,-0.283
N266I,-0.455,0.033,-0.758,-1.46,0.503

Variant,cAMP reporter score ([1]; pH 5.5),cAMP reporter score ([1]; pH 6),"cAMP reporter score ([1]; pH 6, modulator: ogerin)","cAMP reporter score ([1]; pH 6.5, modulator: ogerin)",surface expression score [2]
N266V,-0.525,-1.12,-0.931,-0.538,-0.147
N266D,0.564,-1.21,0.011,-0.757,0.271
N266F,-0.384,-0.807,-1.03,-0.598,-0.503
N266S,-0.544,-0.026,-1.15,-0.37,-0.024
N266K,-1.01,-0.676,-1.01,-1.29,-0.308
N266H,-1.31,-0.997,-1.06,-1.44,-0.041
N266Y,-0.994,-1.19,-1.15,-1.29,0.153
N266T,-0.557,-1.22,-0.25,-0.042,0.292
N266P,-0.125,-0.124,-1.22,-1.1,1.47
N266M,-0.847,-0.909,-1.01,-0.865,-0.099
N266W,-1.16,-2.17,-1.34,0.613,-0.257
N266Q,0.215,0.537,-0.19,-0.348,1.24
N266R,-0.566,-0.601,-1.45,-2.73,0.122
C279_V280insGSG,-1.4,-0.447,-1.42,-0.992,-1.83
N266_Y268del,-1.77,-1.02,-1.05,-1.58,-1.44
K262_G263insG,-1.14,-0.156,-1.52,-1.95,-0.868
V280_D282del,-1.38,-1.36,-1.72,-1.29,-2.24
K262_G263insGS,-1.01,0.149,-0.66,-1,-1.53
F260_K262del,-1.86,-1.66,-1.86,-1.01,-0.704
F265_N266insG,0.877,-0.196,0.28,-0.425,0.585
D259V,-0.824,-0.658,-0.749,-1.49,-1.3

Variant,cAMP reporter score ([1]; pH 5.5),cAMP reporter score ([1]; pH 6),"cAMP reporter score ([1]; pH 6, modulator: ogerin)","cAMP reporter score ([1]; pH 6.5, modulator: ogerin)",surface expression score [2]
D259H,0.124,0.64,0.654,-1.55,-0.274
D259Y,0.167,-1.51,0.284,-0.663,-1.13
D259M,-0.918,,-0.642,-2.13,-0.058
D259G,-0.249,-0.396,-0.178,-0.652,-0.189
D259T,1.63,0.351,1.82,0.994,0.081
D259Q,0.311,-0.411,0.814,-0.485,-0.504
D259A,1.92,1.67,1.43,0.233,-0.617
D259P,0.779,-0.38,0.933,-0.043,0.773
D259C,-0.033,-0.64,-1.32,-1.72,-2.06
D259L,0.496,-0.112,0.806,0.335,-0.713
D259N,-0.877,-0.531,-0.499,0.043,-0.848
D259R,0.667,0.163,1.15,-0.019,-0.439
D259K,0.409,-1.29,0.199,-0.373,-1.26
D259I,0.335,,0.105,-1.2,-0.082
D259E,0.395,1.05,1.05,0.421,0.287
D259S,-0.201,,0.563,,0.174
D259W,-0.628,-0.075,-0.9,-1.19,-0.665
K262_G263insGSG,-0.914,-0.841,-1.19,-1.21,-1.47
F277_N278insG,-1.71,-1.56,-2.35,-1.14,-2.35

# The least precise scores are not listed. Two further conditions of the source, in which the scores hardly spread, are not listed. Read del as a deletion of the residues named and ins as an insertion between two positions. For part of these data: How much ogerin was present is not stated here.
